# Test results reported in the supplement of paper PMC9446081.
# In all, about 39,000 compounds went through this assay and about 220 (0.56%) showed activity. The list shows a part of the results.
# Tested on: Escherichia coli K-12 BW25113
# Experiment: relative growth (OD600 normalised to plate interquartile mean) (fraction); higher = less growth inhibition, active = 0.2 or less
# Settings: 50 µM; LB; incubation time: overnight (16-24 h)
# 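Also: static incubation at 37 °C against the wild-type strain, values averaged over two biological replicates.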
row,Compound,relative growth
1,CCS(=O)(=O)N1C[C@]2(CCN(CC2)Cc2cccc(c2)OC)c2c(n(c3cc(ccc23)OC)C)[C@H]1CO,inactive: 1
2,C[C@@H]1CN([C@H](C)CO)C(=O)c2cccc(N(C)C)c2O[C@H]1CN(C)S(=O)(=O)c1ccc(Cl)cc1,inactive: 1.01
3,C[C@@H]1CN([C@H](C)CO)C(=O)Cc2cc(NS(=O)(=O)c3ccccc3)ccc2O[C@H]1CN(C)Cc1ccncc1,inactive: 1.01
4,C=CCOC[C@H]1NCCc2c1nnn2CC,inactive: 0.957
5,COc1ccc(NC(=O)Nc2ccc3c(c2)C(=O)N([C@H](C)CO)C[C@@H](C)[C@H](CN(C)C(=O)Nc2ccc(F)cc2)OCCCC[C@@H](C)O3)cc1,inactive: 1.02
6,COc1ccc(NC(=O)N(C)C[C@@H]2OCCCC[C@@H](C)Oc3ccc(NS(=O)(=O)c4ccc(C)cc4)cc3C(=O)N([C@@H](C)CO)C[C@@H]2C)cc1,inactive: 1.03
7,Cc1ccc(S[C@]2(C(=O)NCCCN(C)C)CC(=O)N(Cc3ccccc3C(F)(F)F)[C@@H]2c2ccc(CO)cc2)cc1,inactive: 1.03
8,Cc1noc(C)c1NC(=O)Nc1ccc2c(c1)C(=O)N([C@@H](C)CO)C[C@H](C)[C@@H](CN(C)Cc1ccc(Cl)c(Cl)c1)OCCCC[C@H](C)O2,inactive: 0.978
9,COc1cccc(S(=O)(=O)Nc2ccc3c(c2)[C@@H]2C[C@H](CC(=O)N4CCCCC4)O[C@@H](CO)[C@@H]2O3)c1,inactive: 1
10,Cc1ccc(S(=O)(=O)Nc2ccc3c(c2)C(=O)N([C@H](C)CO)C[C@@H](C)[C@@H](CN(C)Cc2ccccc2)OCCCC[C@@H](C)O3)cc1,inactive: 0.999
11,C[C@H](CO)N1C[C@H](C)[C@@H](CN(C)C(=O)Nc2ccccc2)OCCCC[C@H](C)Oc2ccc(NC(=O)Cc3ccccc3)cc2C1=O,inactive: 1
12,C[C@@H]1CCCCO[C@H](CN(C)Cc2ccc3c(c2)OCO3)[C@@H](C)CN([C@@H](C)CO)C(=O)c2cc(NC(=O)NC3CCCCC3)ccc2O1,inactive: 1
13,Cc1ccc(S(=O)(=O)Nc2ccc3c(c2)C(=O)N([C@H](C)CO)C[C@@H](C)[C@@H](CN(C)C(=O)c2ccccc2)OCCCC[C@@H](C)O3)cc1,inactive: 0.998
14,C[C@@H]1CCCCO[C@@H](CN(C)C(=O)Nc2ccc(C(F)(F)F)cc2)[C@H](C)CN([C@H](C)CO)C(=O)c2cc(NC(=O)Cc3ccccc3)ccc2O1,inactive: 1.01
15,C[C@H]1CN([C@@H](C)CO)C(=O)c2cccc(NS(C)(=O)=O)c2O[C@@H]1CN(C)Cc1ccc(C(=O)O)cc1,inactive: 0.978
16,CC(=O)O[C@@H]1CC[C@@]2(C)[C@@H](CC[C@]3(C)[C@@H]2C(=O)C=C2[C@@H]4[C@@H](C)[C@H](C)CC[C@]4(C)CC[C@]23C)[C@@]1(C)C(=O)O,inactive: 0.825
17,COc1ccc(-c2cnc3c(c2)C(=O)N([C@H](C)CO)C[C@H](C)[C@@H](CN(C)C(=O)Cc2ccccn2)O3)cc1,inactive: 0.974
18,COc1ccc(S(=O)(=O)Nc2ccc3c(c2)C(=O)N([C@H](C)CO)C[C@@H](C)[C@@H](CN(C)Cc2ccc(Oc4ccccc4)cc2)O3)cc1,inactive: 0.982
19,COc1ccc(NC(=O)Nc2ccc3c(c2)C(=O)N([C@H](C)CO)C[C@@H](C)[C@H](CN(C)C(=O)Nc2ccc(C(F)(F)F)cc2)O3)cc1,inactive: 0.959
20,COc1cccc(C#Cc2ccc3c(c2)O[C@H](CN(C)C(=O)c2ccccn2)[C@H](C)CN([C@H](C)CO)S3(=O)=O)c1,inactive: 1.05

row,Compound,relative growth
1,Cc1noc(C)c1S(=O)(=O)Nc1ccc2c(c1)CC(=O)N([C@@H](C)CO)C[C@H](C)[C@H](CN(C)S(C)(=O)=O)O2,inactive: 0.991
2,Nc1ccccc1OCc1ccccc1,inactive: 0.955
3,C[C@@H]1CN([C@@H](C)CO)C(=O)c2cc(NC(=O)C3CCCCC3)ccc2O[C@@H](C)CCCCO[C@@H]1CN(C)C(=O)NC1CCCCC1,inactive: 0.977
4,CC(C)CC#Cc1ccc2c(c1)O[C@H](CN(C)S(=O)(=O)c1ccc(F)cc1)[C@H](C)CN([C@@H](C)CO)S2(=O)=O,inactive: 1.04
5,C[C@H]1CN([C@@H](C)CO)C(=O)c2cc(NC(=O)CCC(F)(F)F)ccc2O[C@H]1CN(C)Cc1ccc(C(=O)Nc2ccccc2N)cc1,inactive: 0.998
6,C[C@@H]1CN([C@@H](C)CO)C(=O)c2cc(NC(=O)CCC(F)(F)F)ccc2O[C@@H](C)CCCCO[C@@H]1CN(C)C(=O)c1ccccc1,inactive: 1.02
7,C[C@@H]1CN([C@@H](C)CO)C(=O)c2cc(NS(=O)(=O)c3cccs3)ccc2O[C@@H](C)CCCCO[C@H]1CN(C)Cc1ccccc1,inactive: 1
8,C[C@H](CO)N1C[C@H](C)[C@H](CN(C)S(=O)(=O)c2cn(C)cn2)Oc2c(NC(=O)Nc3ccc4c(c3)OCO4)cccc2C1=O,inactive: 1.01
9,Cc1ccc(S(=O)(=O)Nc2ccc3c(c2)C(=O)N([C@@H](C)CO)C[C@@H](C)[C@@H](CN(C)S(=O)(=O)c2ccc(F)cc2)OCCCC[C@H](C)O3)cc1,inactive: 1.05
10,C[C@@H]1CN([C@@H](C)CO)C(=O)Cc2cc(NC(=O)Cn3cnnn3)ccc2O[C@H]1CN(C)S(C)(=O)=O,inactive: 0.996
11,C[C@@H]1CN([C@H](C)CO)C(=O)c2cccc(NC(=O)C3CC3)c2O[C@@H]1CN(C)Cc1ccc(C(=O)O)cc1,inactive: 0.986
12,COc1ccc(S(=O)(=O)Nc2ccc3c(c2)C(=O)N([C@@H](C)CO)C[C@@H](C)[C@H](CN(C)C(=O)NC2CCCCC2)OCCCC[C@@H](C)O3)cc1,inactive: 0.998
13,O=C(C[C@H]1CC[C@@H]2[C@H](COC[C@@H](O)CN2S(=O)(=O)c2ccccc2)O1)NCCN1CCCCC1,inactive: 1.02
14,C[C@@H]1CCCCO[C@@H](CN(C)C(=O)C2CCCCC2)[C@H](C)CN([C@@H](C)CO)C(=O)c2cc(NC(=O)c3ccncc3)ccc2O1,inactive: 1
15,COC1(NC(=O)Cc2cccs2)C(=O)N2C(C(=O)[O-])=C(COC(N)=O)CSC21.[Na+] (stereo not given),active: 0.0688
16,O=C1NC(=O)[C@@]2(CC[C@H](C(=O)O)C2)N1,inactive: 1.01
17,O=C(C[C@@H]1CC[C@@H](NC(=O)c2cnccn2)[C@H](CO)O1)NCc1ccccc1F,inactive: 0.996
18,C[C@H](CO)N1C[C@H](C)[C@H](CN(C)C(=O)CN(C)C)Oc2cc(C#CCC3CCCC3)ccc2S1(=O)=O,inactive: 1
19,O=c1c(-c2ccc(O)cc2)coc2cc(O)cc(O)c12,inactive: 1.04
20,C[C@@H]1CN([C@@H](C)CO)C(=O)c2cccc(NS(=O)(=O)c3cn(C)cn3)c2O[C@@H]1CN(C)Cc1ccccc1,inactive: 1.02

row,Compound,relative growth
1,N[C@@H](c1ccccc1)c1cc2ccccc2cn1,inactive: 0.942
2,C[C@H]1CN([C@@H](C)CO)C(=O)c2cc(C#Cc3ccccc3F)cnc2O[C@@H]1CN(C)C(=O)C1CCOCC1,inactive: 1
3,C[C@@H]1CCCCO[C@@H](CN(C)CC2CC2)[C@@H](C)CN([C@H](C)CO)C(=O)c2cc(NC(=O)C3CCCCC3)ccc2O1,inactive: 0.978
4,C[C@@H]1CN([C@@H](C)CO)C(=O)c2cc(C#Cc3ccc(F)cc3)cnc2O[C@H]1CN(C)Cc1ccccn1,inactive: 0.99
5,COc1ccc(NC(=O)N(C)C[C@@H]2OCCCC[C@@H](C)Oc3ccc(NC(=O)C4CCCCC4)cc3C(=O)N([C@@H](C)CO)C[C@H]2C)cc1,inactive: 0.992
6,O=C1C=C2CC3(O)COc4cc(O)ccc4C3=C2C=C1O (stereo not given),inactive: 1.12
7,Cc1ccc(S(=O)(=O)Nc2ccc3c(c2)CC(=O)N([C@H](C)CO)C[C@@H](C)[C@H](CN(C)S(=O)(=O)c2c(C)noc2C)O3)cc1,inactive: 0.996
8,COc1ccc(NC(=O)Nc2ccc3c(c2)C(=O)N([C@H](C)CO)C[C@@H](C)[C@H](CN(C)S(=O)(=O)c2c(C)noc2C)OCCCC[C@@H](C)O3)cc1,inactive: 1.01
9,Cc1cc(C(=O)NN)n(C(C)(C)C)n1,inactive: 1.04
10,N[C@H](Cc1ccccc1)C(=O)O,inactive: 0.922
11,Cc1noc(C)c1S(=O)(=O)Nc1ccc2c(c1)CC(=O)N([C@@H](C)CO)C[C@@H](C)[C@@H](CN(C)S(=O)(=O)c1ccc(F)cc1)O2,inactive: 1.05
12,Cc1noc(C)c1NC(=O)N(C)C[C@H]1Oc2ccc(NS(=O)(=O)c3cccs3)cc2CC(=O)N([C@@H](C)CO)C[C@H]1C,inactive: 1
13,Cc1cn(C2CC(N=[N+]=[N-])C(CO)O2)c(=O)[nH]c1=O (stereo not given),active: 0.0449
14,CCc1nc2ccc(C(=O)Nc3ccc(OC)c(OC)c3)cn2c1N(CC)Cc1ccc(OC)c(OC)c1,inactive: 1.01
15,C[C@H]1CN([C@@H](C)CO)C(=O)c2cccc(NC(=O)Nc3ccc(C(F)(F)F)cc3)c2O[C@H]1CN(C)Cc1ccc(Oc2ccccc2)cc1,inactive: 1.02
16,C[C@@H](O)C#Cc1ccc2c(c1)O[C@H](CN(C)C)[C@@H](C)CN([C@@H](C)CO)S2(=O)=O,inactive: 1.01
17,Cc1ccc(S(=O)(=O)N[C@@H](Cc2ccccc2)C(=O)NCCCn2cc(-c3ccccc3N)nn2)cc1,inactive: 0.988
18,COCC(=O)N1CC[C@]2(CC1)CN([C@@H](CO)c1c2c2ccc(cc2n1C)OC)C(=O)Cc1ccccc1,inactive: 1.01
19,Cc1noc(C)c1S(=O)(=O)N(C)C[C@@H]1Oc2ccc(NC(=O)Nc3ccccc3)cc2CC(=O)N([C@H](C)CO)C[C@H]1C,inactive: 1.01
20,C[C@@H]1CN([C@@H](C)CO)C(=O)c2cccc(NC(=O)Nc3ccc(C(F)(F)F)cc3)c2O[C@@H]1CN(C)Cc1ccc2c(c1)OCO2,inactive: 0.993
